Test results reported in the supplement of paper PMC8728848.
The list shows a part of the results.

Experiments:
Experiment in all cases: glycan array binding signal (z-score within array); higher = stronger binding
Conditions in all cases: glycan notation: IUPAC condensed, linker removed
[1] = target: Gal(b1-4)GlcNAc(b1-2)Man(a1-3)[GlcNAc(b1-2)Man(a1-6)]Man(b1-4)GlcNAc(b1-4)GlcNAc
Outline: (§1)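 Glycan array data were curated from 3228 arrays in the Consortium for Functional Glycomics database and kept only where the protein sequence was available. Glycan names were converted to IUPAC-condensed notation, and columns mapping to the same glycan were averaged. The binding signal is a within-array Z-score, averaged across arrays of the same protein sequence at different concentrations or buffers and across linkers. Negative Z-scores can be read as non-binding.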

[2] = target: Gal(b1-4)GlcNAc(b1-2)Man(a1-3)[GlcNAc(b1-4)][Gal(b1-4)GlcNAc(b1-2)Man(a1-6)]Man(b1-4)GlcNAc(b1-4)GlcNAc
Outline: as §1

[3] = target: Gal(b1-4)GlcNAc(b1-2)Man(a1-3)[Man(a1-6)]Man(b1-4)GlcNAc(b1-4)GlcNAc
Outline: as §1

[4] = target: Gal(b1-4)GlcNAc(b1-2)Man(a1-6)Man(b1-4)GlcNAc(b1-4)GlcNAc
Outline: as §1

[5] = target: Gal(b1-4)GlcNAc(b1-2)Man(a1-6)[GlcNAc(b1-2)Man(a1-3)]Man(b1-4)GlcNAc(b1-4)GlcNAc
Outline: as §1

[6] = target: Gal(b1-4)GlcNAc(b1-2)Man(a1-6)[Man(a1-3)]Man(b1-4)GlcNAc(b1-4)GlcNAc
Outline: as §1

[7] = target: Gal(b1-4)GlcNAc(b1-2)[Gal(b1-4)GlcNAc(b1-4)]Man(a1-3)[Gal(b1-4)GlcNAc(b1-2)Man(a1-6)]Man(b1-4)GlcNAc(b1-4)GlcNAc
Outline: as §1

[8] = target: Gal(b1-4)GlcNAc(b1-2)[Gal(b1-4)GlcNAc(b1-4)]Man(a1-3)[Gal(b1-4)GlcNAc(b1-2)[Gal(b1-4)GlcNAc(b1-6)]Man(a1-6)]Man(b1-4)GlcNAc(b1-4)GlcNAc
Outline: as §1

[9] = target: Gal(b1-4)GlcNAc(b1-2)[Gal(b1-4)GlcNAc(b1-4)]Man(a1-3)[GlcNAc(b1-4)][Gal(b1-4)GlcNAc(b1-2)Man(a1-6)]Man(b1-4)GlcNAc(b1-4)GlcNAc
Outline: as §1

[10] = target: Gal(b1-4)GlcNAc(b1-2)[Gal(b1-4)GlcNAc(b1-4)]Man(a1-3)[GlcNAc(b1-4)][Gal(b1-4)GlcNAc(b1-2)[Gal(b1-4)GlcNAc(b1-6)]Man(a1-6)]Man(b1-4)GlcNAc(b1-4)GlcNAc
Outline: as §1

[11] = target: Gal(b1-4)GlcNAc(b1-2)[Gal(b1-4)GlcNAc(b1-6)]Man(a1-6)[Gal(b1-4)GlcNAc(b1-2)Man(a1-3)]Man(b1-4)GlcNAc(b1-4)GlcNAc
Outline: as §1

[12] = target: Gal(b1-4)GlcNAc(b1-2)[Gal(b1-4)GlcNAc(b1-6)]Man(a1-6)[Gal(b1-4)GlcNAc(b1-2)Man(a1-3)]Man(b1-4)GlcNAc(b1-4)[Fuc(a1-6)]GlcNAc
Outline: as §1

[13] = target: Gal(b1-4)GlcNAc(b1-2)[Gal(b1-4)GlcNAc(b1-6)]Man(a1-6)[GlcNAc(b1-4)][Gal(b1-4)GlcNAc(b1-2)Man(a1-3)]Man(b1-4)GlcNAc(b1-4)GlcNAc
Outline: as §1

[14] = target: Gal(b1-4)GlcNAc(b1-2)[Gal(b1-4)GlcNAc(b1-6)]Man(a1-6)[GlcNAc(b1-4)][Gal(b1-4)GlcNAc(b1-2)[Gal(b1-4)GlcNAc(b1-4)]Man(a1-3)]Man(b1-4)GlcNAc(b1-4)[Fuc(a1-6)]GlcNAc
Outline: as §1

[15] = target: Gal(b1-4)GlcNAc(b1-3)Gal(b1-3)GalNAc
Outline: as §1

[16] = target: Gal(b1-4)GlcNAc(b1-3)Gal(b1-3)GlcNAc
Outline: as §1

[17] = target: Gal(b1-4)GlcNAc(b1-3)Gal(b1-4)Glc
Outline: as §1

[18] = target: Gal(b1-4)GlcNAc(b1-3)Gal(b1-4)GlcNAc
Outline: as §1

[19] = target: Gal(b1-4)GlcNAc(b1-3)Gal(b1-4)GlcNAc(b1-2)Man(a1-3)[Gal(b1-4)GlcNAc(b1-3)Gal(b1-4)GlcNAc(b1-2)Man(a1-6)]Man(b1-4)GlcNAc(b1-4)GlcNAc
Outline: as §1

[20] = target: Gal(b1-4)GlcNAc(b1-3)Gal(b1-4)GlcNAc(b1-2)Man(a1-3)[Gal(b1-4)GlcNAc(b1-3)Gal(b1-4)GlcNAc(b1-2)Man(a1-6)]Man(b1-4)GlcNAc(b1-4)[Fuc(a1-6)]GlcNAc
Outline: as §1

[21] = target: Gal(b1-4)GlcNAc(b1-3)Gal(b1-4)GlcNAc(b1-2)[Gal(b1-4)GlcNAc(b1-3)Gal(b1-4)GlcNAc(b1-6)]Man(a1-6)[Gal(b1-4)GlcNAc(b1-3)Gal(b1-4)GlcNAc(b1-2)Man(a1-3)]Man(b1-4)GlcNAc(b1-4)GlcNAc
Outline: as §1

[22] = target: Gal(b1-4)GlcNAc(b1-3)Gal(b1-4)GlcNAc(b1-2)[Gal(b1-4)GlcNAc(b1-3)Gal(b1-4)GlcNAc(b1-6)]Man(a1-6)[Gal(b1-4)GlcNAc(b1-3)Gal(b1-4)GlcNAc(b1-2)Man(a1-3)]Man(b1-4)GlcNAc(b1-4)[Fuc(a1-6)]GlcNAc
Outline: as §1

B1: ECA (Erythrina cristagalli), P83410 (protein)
chain: VETISFSFSEFEPGNDNLTLQGAALITQSGVLQLTKINQNGMPAWDSTGRTLYTKPVHMWDSTTGTVASFETRFSFSIEQPYTRPLPADGLVFFMGPTKSKPAQGYGYLGVFNNSKQDNSYQTLAVEFDTFSNPWDPPQVPHIGIDVNSIRSIKTQPFQLDNGQVANVVIKYDAPSKILHVVLVYPSSGAIYTIAEIVDVKQVLPDWVDVGLSGATGAQRDAAETHDVYSWSFQASLPE
[1]
  glycan array binding signal (z-score): -0.236
[2]
  glycan array binding signal (z-score): -0.431
[3]
  glycan array binding signal (z-score): 0.05
[4]
  glycan array binding signal (z-score): -0.467
[5]
  glycan array binding signal (z-score): -0.372
[6]
  glycan array binding signal (z-score): -0.277
[7]
  glycan array binding signal (z-score): -0.152
[8]
  glycan array binding signal (z-score): -0.515
[9]
  glycan array binding signal (z-score): 0.049
[10]
  glycan array binding signal (z-score): -0.361
[11]
  glycan array binding signal (z-score): 0.431
[12]
  glycan array binding signal (z-score): -0.445
[13]
  glycan array binding signal (z-score): -0.314
[14]
  glycan array binding signal (z-score): 0.087
[15]
  glycan array binding signal (z-score): -0.403
[16]
  glycan array binding signal (z-score): 0.087
[17]
  glycan array binding signal (z-score): 2.06
[18]
  glycan array binding signal (z-score): 1.99
[19]
  glycan array binding signal (z-score): 3.88
[20]
  glycan array binding signal (z-score): 0.465
[21]
  glycan array binding signal (z-score): 0.758
[22]
  glycan array binding signal (z-score): 0.699
